# Source: the supplement of paper PMC12632987
# In all, about 1,800 sequences were measured (“median log2 fold change of GCK-ALFA target abundance (FLAG IP / Myc IP barcode read proportion)”: median about 0.14, lowest 2% from about -0.84 on). The list shows a part of the results.
# T1: TRAF2, Q12933
# T1 chain: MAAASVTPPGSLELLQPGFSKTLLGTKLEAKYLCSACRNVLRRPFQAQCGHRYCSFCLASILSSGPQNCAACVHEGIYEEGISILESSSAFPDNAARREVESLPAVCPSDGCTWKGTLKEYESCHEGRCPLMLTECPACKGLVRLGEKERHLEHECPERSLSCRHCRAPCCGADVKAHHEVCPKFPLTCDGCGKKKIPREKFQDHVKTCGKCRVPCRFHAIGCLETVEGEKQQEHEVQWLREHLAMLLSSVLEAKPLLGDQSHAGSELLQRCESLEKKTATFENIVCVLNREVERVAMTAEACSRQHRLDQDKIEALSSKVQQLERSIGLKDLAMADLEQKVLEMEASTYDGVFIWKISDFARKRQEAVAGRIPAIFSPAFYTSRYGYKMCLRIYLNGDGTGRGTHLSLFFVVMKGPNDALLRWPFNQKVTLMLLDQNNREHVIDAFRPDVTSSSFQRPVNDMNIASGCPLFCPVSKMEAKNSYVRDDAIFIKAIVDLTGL
# B1: traf2_out_17_162_1600 (protein)
# chain: SELEKFKEKIEKELEELEKERKELEKKLKEIDSLSKEELTDLLVEASEKRRKALELLEKLEENKEKLDKEFYEKYKKRAEEIAEEFQRIANEIMKKLEEK
# B2: traf2_out_16_104_1423 (protein)
# chain: SEEKQKAFDKAIKELEEIAERAQRLANRAYELYLKASPEKKTELSDLLVELSELKREALLAAQEAKELQKNGGDLEEVQKKLEELRKRLEELEKRLKELE
# B3: traf2_out_6_156_2375 (protein)
# chain: MLEKILEEAKKKIEELIKELAKASEEKKIAYISRIAGAVYRALQRMREAGASVEEIKKAVEELKKVAEEKAKEAGLDQDTIDLLLASIDAVGKVALEEAK
# B4: traf2_out_15_180_1324 (protein)
# chain: MTEEELEKRIELANEVADKVDDKLKALLAANPGLSEEEKAALKALARSVTTLYMNGEYAEAEAALAALEARLSPKAAAVAKELAAFAKKLVEEAKEELAK
# B5: traf2_out_6_156_2391 (protein)
# chain: MLEAIEAETLEKLAELIEEMSKASEEKKIFYINRIAGVVYRALQRARDAGASLEELRAFAERVRAFLKEELDKYGIDEDTKNLILSSINAVFDEALAAAE
# B6: traf2_out_18_3_1942 (protein)
# chain: KEEKLKEISEKIDEIIDEVTARAEAELARLLAEHPEHAAEAERLRADLAAGAGPFGILEELAELWRAAGDEERAAAVEEFLRRKRRELQKLVDEYEKLLK
# B7: traf2_out_6_156_2434 (protein)
# chain: SIEEILKEAKEKIKELIKELAKAPESKKISYINKIAGTFYNALRKLKEAGASIEEIKKVNEELIKVAEEEAKKAGLDEDTINLLLASLNAVGIVAIESAE
# B8: traf2_out_17_178_1712 (protein)
# chain: SKEEARKEISAATDEMIDLAEAAATRLLEIARKEGSLSPEELAELERARRLGSARTTLALMERAIPKSKSAEEVQAILDEFRKRYAELSKKIAEALEKYE
# Target: T1, TRAF2, Q12933
# Assay: median log2 fold change of GCK-ALFA target abundance (FLAG IP / Myc IP barcode read proportion) (log2 ratio); each designed protein is fused to an ALFA-tag nanobody in HEK293 cells to bring the named protein to FLAG-tagged glucokinase (GCK); Myc marks an untargeted standard; higher = target protein stabilised (more abundant)
# Details: target protein: 3xFLAG-MCP-GCK-ALFA reporter; HEK293 landing pad (RPLP)
# Summary of the method: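 HEK293 landing-pad cells received a recombined binder library fused to the ALFA nanobody and were induced with 2 μg mL^−1 doxycycline, then transfected with a plasmid encoding a FLAG-tagged target and a Myc-tagged standard. Lysates were collected after 48 h for anti-FLAG and anti-Myc immunoprecipitation, and the circular RNA barcodes were reverse transcribed, amplified and sequenced. Target abundance for each binder is the median log2 ratio of FLAG to Myc barcode read proportions. Barcodes had to reach a proportion of at least 10^−7 in both replicates, each binder needed at least 3 barcodes per replicate, a pseudocount of 10^−6 was applied, and the two replicates were pooled.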
row,Binder,median log2 fold change
1,B1,0.0488
2,B2,0.167
3,B3,0.151
4,B4,0.187
5,B5,0.185
6,B6,-0.0278
7,B7,0.163
8,B8,0.217
